# Experimental data reported in PubChem BioAssay (NCI).
# Values joined by “and” are separate entries in the source; they are usually repeats but may differ in a detail not shown here. Equal values may be shown once.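 A five-concentration, 48-hour dose response in 96-well plates underlies each endpoint, interpolated linearly between surrounding concentrations. Here, GI50 denotes the concentration required for 50% inhibition of growth. The concentration for full growth arrest is given as TGI.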
# Test system: NCI-H322M lung
# Experiment: NCI-60 cell line screen, 48 h
SMILES,TGI,GI50
O=C1c2c(ccc3c2CCC3)CC1Cc1ccc2c(c1)CCC2 (centres undefined),> 100 µM,–
N#Cc1cc2c(cc1C#N)/C(=N\c1cccc(N)n1)N=C2Nc1cccc(N)n1,> 100 µM,–
O=c1cc(-c2ccccc2)[nH]c2ccc(S)cc12,> 100 µM,–
O=C1CCC(=O)N1CNc1ccc2c(c1)S(=O)(=O)c1ccccc1O2,> 100 µM,–
O=C1C[C@H](COCc2ccccc2)NC(=O)C[C@H](COCc2ccccc2)NC(=O)C[C@H](COCc2ccccc2)N1,> 100 µM,–
N#COc1ccc(Oc2ccccc2)cc1,> 100 µM,–
COC(=O)CCC(=O)N1C/C(=C\c2ccccc2)C(=O)/C(=C/c2ccccc2)C1,16 µM,–
O=c1c2cc(Br)cc(Br)c2nc(CCCl)n1-c1ccc(O)c([N+](=O)[O-])c1,31.7 µM,–
CCC1C(C)C=NN1c1nc(N)nc(C(C#N)=Nc2ccc(N(C)C)cc2)n1 (centres undefined),30.5 µM,13.4 µM
COc1ccc2c(c1)CC1COc3cc(OC)ccc3C1O2 (centres undefined),> 100 µM,–
C[C@]12Cc3cnc(-c4ccccc4)nc3C[C@@H]1CC[C@@H]1[C@@H]2CC[C@@]2(C)[C@H]1CC[C@]2(C)O,45.1 µM,–
CNC(=O)c1cc(Oc2cccc3nc(NC(=O)Nc4cc(C(F)(F)F)cc(C(F)(F)F)c4)ccc23)ccn1,50.6 µM,3.94 µM
N#Cc1c(C#N)c(-c2ccccc2)n(Cc2ccccc2)c1N,> 100 µM,–
CCC(=O)NI1OC(=O)c2ccccc21,> 100 µM,–
O=C1Nc2cc(-c3cccc(O)c3)ccc2/C1=C/c1ccc[nH]1,16.6 µM,1.29 µM
C=C1c2ccccc2C(=O)c2c1c1c(C(=O)OC)c(OC(=O)OCc3ccc([N+](=O)[O-])cc3)ccc1n2Cc1ccccc1,> 100 µM,50.8 µM
Clc1ccc(C2CC(c3cccc(Nc4ccncc4)c3)=NN2c2ccc(Cl)cc2)cc1 (centres undefined),2.98 µM,1.61 µM
O/N=C1\CC2(N3CCOCC3)CCC1(c1ccccc1)CC2,> 100 µM,–
CNCCCNC(=S)Cn1cc(C)c(=O)[nH]c1=O,> 100 µM,–
CCC/C=C\C=C\C1(NS(=O)(=O)c2ccc(C)cc2)CCC(C(C)(C)C)CC1 (centres undefined),44.8 µM,–
Cc1c[nH]c(C(=O)O)c1-c1cccn1-c1ccc(Cl)cc1[N+](=O)[O-],> 100 µM,–
COc1cc2c(oc(=O)c3c4occc4cc(OC)c23)c2cccc(OCc3ccccc3)c12,> 100 µM,–
CN(C)CCC(/C=C/c1ccccc1)=N\Nc1ccc(Cl)c(Cl)c1,12.2 µM,–
CCN(CC)Cc1ccccc1CC(=O)N1c2ccccc2C(=O)Nc2cccnc21,> 100 µM,–
Cc1cccc(NC(=O)O/N=C(\Cl)C(C)C)c1,31.2 µM,–
C1OC1CN1CCN(CC2CO2)CC1 (centres undefined),> 100 µM,–

SMILES,TGI,GI50
NC1C=NNC1=O (centres undefined),> 100 µM,–
O=C1CC(c2c(-c3ccccc3)[nH]c3ccccc23)C(=O)N1c1ccccc1 (centres undefined),> 100 µM,–
C=C1CCCC(C)(C)[C@H]1C/C=C1\CCOC1=O,30.8 µM,–
C=C1C(=O)O[C@H]2C1C[C@@H](O)/C(C)=C/CC[C@@]1(C)O[C@H]21 (some centres undefined),> 100 µM,–
O=C1CC[C@H](N2Cc3c(OCc4ccc(CN5CCOCC5)cc4)cccc3C2=O)C(=O)N1,> 100 µM,> 100 µM
CC(C)=NNc1snnc1C(N)=O,> 100 µM,–
O=C(CC(O)(C(F)(F)F)C(F)(F)Cl)CC(O)(C(F)(F)F)C(F)(F)Cl (centres undefined),> 10 µM,–
CCOC(=O)Nc1nc2ccccc2[nH]1,> 100 µM,16.2 µM and 6.05 µM
O=C(CSCC(=O)N/N=C/c1ccccc1O)N/N=C\c1ccccc1O,> 100 µM,1.69 µM
Cc1cc(C(=O)Nc2n[nH]c3ccccc23)n[nH]1,> 100 µM,> 100 µM
CN(C)CCNCc1ccc2c(-c3ccccc3)nc3cc(Cl)c(Cl)cc3n12,20.5 µM,–
COc1ccc(/C=C2\C[C@H]3[C@@H]4CC=C5C[C@@H](OC(C)=O)CC[C@]5(C)[C@H]4CC[C@]3(C)\C2=N\O)cc1OC,> 100 µM,–
CN(CCNC(=O)c1c[nH]c2c1ccc1ccccc12)CCNC(=O)c1c[nH]c2c1ccc1ccccc12,4.39 µM,–
N#Cc1ccc(/C=C(/C(=O)c2ccccc2)c2ccccc2)cc1,28.8 µM,–
CC[C@@]1(OC(=O)CN(C)C)C(=O)OCc2c1cc1n(c2=O)Cc2cc3c(N)cccc3nc2-1,0.263 µM,0.0403 µM
O=C(O)c1cc2ccccc2c2c3c(ccc12)OCO3,745 µM,226 µM
CSc1nc(Nc2ccccc2Cl)c2c(N)nn(C)c2n1,> 100 µM,–
O=C(O)CCO/N=C1/C(c2c(O)[nH]c3ccccc23)=Nc2ccccc21,95.6 µM,–
C[C@H]1C/C=C/[C@H]2[C@@H]3O[C@]3(C)[C@@H](C)[C@H]3[C@H](Cc4ccccc4)NC(=O)[C@]32OC(=O)O/C=C/[C@@](C)(O)C1=O,> 98.2 µM and 125 µM and 116 µM,1.79 µM and 1.72 µM
COc1ccc(NC(=S)NNC(=O)c2nsc3ccccc23)cc1,> 100 µM,–
CC1=C(/C=C/C(=O)CC(=O)/C=C/C2=C(C)CCCC2(C)C)C(C)(C)CCC1,> 100 µM,34.2 µM
CNCCN[C@@H]1c2cc3c(cc2[C@@H](c2cc(OC)c(O)c(OC)c2)[C@H]2C(=O)OC[C@@H]21)OCO3,12.1 µM,–
O=C1c2c(Br)sc(Br)c2[C@@H](Cl)[C@H]1Cl,39.3 µM,–
Cc1c(O)c(OC2OC(CO)C(O)C(O)C2O)cc2c1C=C[C@@H]1[C@@]2(C)C(=O)C[C@]2(C)[C@@H]([C@@](C)(O)C(O)/C=C/C(C)(C)O)[C@H](O)C[C@@]12C (some centres undefined),> 100 µM,–
O=C(O)C(O)(c1ccc(-c2ccccc2)cc1)c1ccc(-c2ccccc2)cc1,> 100 µM,–
C[C@@H]1[C@H](O)CC2=C(CC[C@@H](O)C2(C)C)[C@@]1(CO)CCc1ccoc1,> 50 µM,–

SMILES,TGI,GI50
Cc1ccc(S(=O)(=O)NC(=O)NCCc2ccccc2)cc1,> 100 µM,–
c1ccc2cc3c(cc2c1)Nc1c2ccccc2nc2cccc-3c12,3.02 µM,–
O=C(O)c1nc2ccc(Cl)cc2[nH]c1=O,> 100 µM,–
NCCCCCNc1noc(Cc2c[nH]c3cc(Br)ccc23)n1,66.3 µM,11.1 µM
Cc1ccc(C(=O)c2sc3nc4c(cc3c2N)CCCC4)c(C)c1,> 100 µM,3.35 µM
c1ccc2c(c1)OCCc1cn[nH]c1-2,> 100 µM,–
CC(C)(C)OC(=O)NCCCCn1c2c(c3ccccc3c1=O)C(=O)c1ccccc1-2,87.4 µM,32.3 µM
c1ccc2c(c1)nn1c3ccc4nonc4c3[n-][n+]21,> 100 µM,–
O=c1[nH]nc(-c2ccccc2)n1/N=C/c1ccco1,> 100 µM,–
CC(=O)OC1OC(c2ccoc2)C[C@@]12C1CCC3O[C@]3(C)[C@]1(C)[C@H](OC(C)=O)[C@H](OC(C)=O)[C@H]2C (some centres undefined),> 37.5 µM,–
C[N+](C)(C)CC1CCC(C[N+](C)(C)C)C1=O (centres undefined),30.8 µM,–
Nc1ccccc1C#C/C=C\C#CC#C/C=C\C#Cc1ccccc1N,> 100 µM,17.7 µM
O=C1CCCC/C1=C1/SC(=Nc2ccccc2)C(=Nc2ccccc2)N1c1ccccc1,> 100 µM,–
COc1cc(-n2cc(-c3ccccc3)[nH]c2=O)cc(OC)c1OC,> 100 µM,75.8 µM
Cc1ccc(Nc2cc(Cl)c([N+](=O)[O-])cc2[N+](=O)[O-])cc1,10.4 µM,5.49 µM
Cc1ccc(S(=O)(=O)N/N=C(\c2nc3ccc([N+](=O)[O-])cc3[nH]c2=O)C(O)c2ccc([N+](=O)[O-])cc2)cc1 (centres undefined),> 100 µM,–
CC[C@@]1(OC(=O)C(N)CCCCN)C(=O)OCc2c1cc1n(c2=O)Cc2cc3ccccc3nc2-1 (some centres undefined),1.99 µM,–
CN1CCN(c2ccc(OC(F)(F)F)c(Nc3ncc4c(n3)-c3c(c(C(N)=O)nn3CCO)CC4)c2)CC1,> 10 µM,0.158 µM
CCOC(=O)Nc1sc2c(c1C#N)CC(C)CC2 (centres undefined),> 100 µM,–
Cc1c2n(c3ccccc13)S(=O)(=O)c1ccccc1-2,> 100 µM,–
O=S(=O)(O)c1cc(S(=O)(=O)O)c2cc(N=Nc3c(O)ccc4ccccc34)ccc2c1,> 100 µM,–
COc1cc2oc(=O)cc(C)c2c(OC)c1O,> 100 µM,–
Cc1ccccc1NC(=O)/C=N/O,> 100 µM,–
O=C(Nn1c(-c2cccs2)nc2ccc(I)cc2c1=O)c1ccccc1,83.7 µM,–
O=C(O)C1CC=CCC1C(=O)Nc1cccc(O)c1 (centres undefined),> 100 µM,–
Clc1cc2ccccc2c2ccccc12,> 100 µM,–

SMILES,TGI,GI50
O/N=C(/C(Cl)=C(Cl)Cl)C(Cl)Cl,96.1 µM,–
CO[C@@H]1CCN(c2nccc(Nc3cc4c(C(C)C)ccc(N5CC(CS(C)(=O)=O)[C@H]5C)c4cn3)n2)C[C@@H]1F (some centres undefined),65.1 µM,0.708 µM
COc1cccc2c1C1(O)C2CCCCCCCCCC12OCCCO2 (centres undefined),> 100 µM,–
Cc1ccc(S(=O)(=O)NC(=O)Nc2cccc(S(N)(=O)=O)c2)cc1,> 100 µM,–
CCCCC(C)/C=C/C(=O)C1=C(O)/C(=C/C(=O)O)OC1=O (centres undefined),> 100 µM,–
CC(C)(C)c1cc2c(c(C(C)(C)C)c1O)CC(=O)O2,> 100 µM,–
N#Cc1cnc2cc(OC[C@@H](O)CO)c(NC(=O)C3CCCC3)cc2c1Nc1ccc(OCc2cccc(F)c2)c(Cl)c1,19.3 µM,2.32 µM
COCCOCCOCc1n(Cc2ccc3ccccc3c2)c2ccccc2[n+]1Cc1ccc2ccccc2c1,2.62 µM,1.2 µM
O=S(=O)(NCCNc1nccc(-c2c(-c3ccc(F)c(O)c3)nc3sccn23)n1)c1ccc(Cl)cc1,> 50 µM,3.12 µM
Cc1ccc(/C=C/C(=N/NC(=O)N/N=C(/C=C/c2ccc(C)cc2)C(C)C)C(C)C)cc1,> 10 µM,–
Cn1c2c(c3ccccc31)CCN=C2C1CCCOC1=O (centres undefined),> 100 µM,–
O=C1C(=C2CCCC2)CCC1CN1CCCCC1 (centres undefined),> 100 µM,–
O=C1NC(N2CCCC(CO)C2)=N/C1=C\c1ccccc1 (centres undefined),> 100 µM,–
COC(=O)c1c(C)[nH]c2c1C(=O)C(=O)c1nc(C)c(C)nc1-2,60.5 µM,–
O=[P+](O)c1ccccn1,> 100 µM,–
CC(C)(C)OC(=O)N1CC(CCl)c2ccc(O)cc21 (centres undefined),6.29 µM,–
CC1C2CCC3C(O)C2(CC(O)C2(O)C1CC(O)C2(C)C)CC3(C)O (centres undefined),> 100 µM,–
Nc1nonc1-c1nc2ccccc2n1Cc1ccc(F)cc1,> 100 µM,57.8 µM
NC(=O)CN1CC(C2=C(O)CN(CC(N)=O)C2=O)=CC1=O,> 100 µM,–
CC(C)(C)c1cc(C(=O)Nc2ccc(C(=O)NCCN)cc2)cc(C(C)(C)C)c1,7.02 µM,2.23 µM
CC(C)(C)C1CCC2c3c([nH]c4ncccc34)C3C(=O)N(c4ccccc4)C(=O)C3C2C1 (centres undefined),> 100 µM,–
OC(c1ccc(Cl)cc1)(c1ccc(Cl)cc1)c1cncnc1,31.1 µM,–
COC(=O)C1CCC(=O)N1CN(C(C)=O)c1cc(OC)ccc1OC (centres undefined),> 100 µM,–
CS(=O)(=O)Nc1cc(-c2ccc3ncnc(Nc4ccc(F)c(Cl)c4)c3c2)cnc1Cl,3.58 µM and 3.46 µM,0.725 µM and 0.556 µM
